Screen size: about 48,000 compounds; about 120 (0.25%) were called active. Another 4% or so got no clear call; they are omitted. The call rests on the fitted dose curve; in most records, active means well fitted activation curve with a large enough effect; inconclusive means small, poorly fitted or top-dose-only effect, or another doubt; inactive means no such curve, though single readings can be large or run the other way. This is one part of the list.
test: Primary qHTS for Identification of Small Molecule Activators of Huntingtin-Antisense Promoter Activity; details: HEK293 HTT-AS promoter firefly luciferase reporter, 24 h; series mostly up to 57.5 µM; activity change, positive = activation: at the top concentration; further: nearly all actives have a fitted effect of over 55% in size
Method in brief: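 Luminescence was read after Dual-Glo reagent and a 10 min room-temperature incubation. Values were normalized to vehicle (0% activity) and zero RLU (-100% activity). Reporter HEK293 cells had been exposed to compounds (up to 57.5 uM final) for 24 h.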

Activity change, positive = activation, inactive:
CCN(C(=O)CCS(=O)(=O)c1ccc2c(c1)oc(=O)n2C)c1ccc(OC)cc1 14.9% [at 11.5 µM, percent change from vehicle, -100% = no light], Cc1ccc(NC(=O)CSc2nc3c(c(=O)[nH]2)CCC3)cc1Cl -6.47%, CCS(=O)(=O)N1CCC2(CC1)OC(=O)C(C)=C2C(=O)NCc1cccc(Cl)c1 -14.4%, CCn1c(COc2cccc(C)c2)nc2ccccc21 -17.8%, O=S(=O)(c1ccc(Br)cc1)c1nc(-c2cccs2)oc1SCc1ccc(F)cc1 -11.3%, COc1cc2c(cc1NC(=O)COc1ccc(Br)cc1C)oc1ccccc12 10.2%, Cc1ccccc1NS(=O)(=O)c1ccc2c(c1)NC(=O)CCS2 -25.5%, CCn1c(SCC(=O)Nc2ccccc2)nc2c([nH]c3ccccc32)c1=O -8.24%, CC(C)CCNC(=O)CCC(=O)N1Cc2ccccc2Oc2ncccc21 -14.4%, Cc1ccc(S(=O)(=O)Nc2ccc3[nH]c(=O)sc3c2)cc1C -20.9%, O=C(c1ccc2c(c1)N(Cc1ccc(Cl)cc1)C(=O)c1ccccc1S2(=O)=O)N1CCC(Cc2ccccc2)CC1 -37.4%, COc1cccc(-n2c(=O)c3cc(OC)c(OC)cc3n(CC(=O)Nc3ccccc3)c2=O)c1 -20.5%, O=C(c1ccc2c(c1)N(Cc1ccc(F)cc1)C(=O)c1ccccc1S2(=O)=O)N1CCCCCC1 -38.3%, CCOc1ccc(NC(=O)CSC2=Nc3ccccc3C3=NC(CC(=O)NCc4ccccc4OC)C(=O)N23)cc1 (centres undefined) -50.4%, Cc1ccc(N2CC(NC(=O)c3ccco3)CC2=O)cc1 (centres undefined) -5.65%, O=C(Nc1cc2c(cc1C(=O)c1ccc(Br)cc1)OCCO2)c1ccc(Cl)cc1 -5.2%, Cc1oc(-c2ccccc2F)nc1CS(=O)(=O)CC(=O)N1CCN(c2ccc(Cl)cc2)CC1 -55.1%, CCc1cccc(NC(=O)c2c(N3CCCC3=O)c3cc(C)ccc3n2C)c1 -43.1%, Cc1ccc(C)c(S(=O)(=O)c2cn(C)c3cc(F)c(F)cc3c2=O)c1 13.5%, COc1ccc(CCn2c(=O)c3ccccc3n(CC(=O)Nc3cccc(C)c3)c2=O)cc1OC 3.42%, CC(=O)Nc1ccccc1-c1nc2ccccc2n(CC(=O)Nc2ccc(C)c(Cl)c2)c1=O -3.55%, Cc1ccc(S(=O)Cc2ccc(C(=O)NC3CCCCCC3)o2)cc1 (centres undefined) -11.2%, CNC(=O)CN(CCN(CCN(CC(=O)[O-])CC(=O)NC)CC(=O)[O-])CC(=O)[O-].O.[Gd+3] 1.48%, O=C(/C=C/c1ccc(O)c(O)c1)O[C@@H]1C[C@@](OC(=O)/C=C/c2ccc(O)c(O)c2)(C(=O)O)C[C@@H](O)[C@@H]1O -4.43%, COC(=O)c1sc(-c2ccccc2)cc1NC(=O)Nc1ccccc1Cl -17.6%, Cc1cc(C)cc(Nc2nc3ccccc3nc2-n2nc(C)cc2C)c1 -11.8%, CCOC(=O)N1CCc2c(sc3c2c(=O)n(Cc2ccccc2)c(=O)n3CC(=O)Nc2cccc(C)c2)C1 -18%, COc1ccc(-c2cn3c(n2)sc2cc(C(=O)Nc4c(C)cccc4C)ccc23)cc1 11.9%, Cc1ccc(CNC(=O)C2(c3cccs3)CCOCC2)cc1 -11%, CCOc1ccc(NC(=O)CSc2ncnc3c2sc2ccccc23)cc1 -3.73%, COc1ccc(C(=O)n2nc(-c3ccc(Cl)cc3)nc2NCc2ccco2)cc1 7.42%, CN(C)S(=O)(=O)c1ccc(C(=O)Nc2c(C(=O)Nc3ccc(F)cc3)oc3ccccc23)cc1 4.45%, CCc1ccc(NC(=O)c2cc3c(COC(C)=O)cnc(C)c3oc2=O)cc1 -5.88%, COc1ccccc1C(=O)Nc1c(C(=O)N2CCN(c3ccccc3F)CC2)oc2ccccc12 -17.8%, COc1ccc(NC(=O)CCCSc2nc(-c3ccco3)cc(C(F)(F)F)n2)cc1 -6.85%, Cc1cc2c(cc1S(=O)(=O)NCc1ccccc1)OCC(=O)N2 -10.7%, Cc1ccc(NC(=O)c2ccc(COc3ccccc3Cl)o2)cc1 7.74%, O=C(c1ccccc1)c1ccc2nc(N3CCN(c4ccccc4)CC3)c3nncn3c2c1 -15.9%, Cc1ccc(CNC(=O)c2ccc3c(c2)NC(=O)C(CS(=O)(=O)Cc2ccc(F)cc2)N3)cc1 (centres undefined) -8.46%, CN(C)c1cccc(C(=O)Nc2nc3ccc(S(=O)(=O)NC(C)(C)C)cc3s2)c1 -8.9%, CC(C)(C)c1ccc(C(=O)Nc2ccc(C(=O)OCc3cc(=O)n4ccsc4n3)cc2)cc1 -42.8%, CCC1CCCCN1CCCNC(=O)c1cn(CC)c2ccc(S(=O)(=O)N(C)C3CCCCC3)cc2c1=O (centres undefined) -12.5%, Cc1nc2ccc(S(=O)(=O)CCC(=O)Nc3ccc(C(C)C)cc3)cc2s1 -14.4%, O=C(CSc1ccccc1)N1CCc2c([nH]c3ccccc23)C1c1ccc(Cl)cc1 (centres undefined) -32.5%, Cc1cccc(S(=O)(=O)c2cn(C)c3cc(N4CCCCCC4)c(F)cc3c2=O)c1 -0.984%, Cc1cccc(NC(=O)c2cc(CN3CCOCC3)on2)c1C -3.42%, COc1ccc(NC(=O)Cn2nc3c(cc2=O)CCCC3)cc1Cl -21.4%, CCCCc1nn2c(=O)cc(CN(CC)c3ccccc3)nc2s1 -27.7%, COc1cccc(C(=O)c2cn(CC(=O)Nc3cc(Cl)c(OC)cc3OC)c3nc(C)ccc3c2=O)c1 -20.5%, Cc1nc(N2CCCC2)ncc1C(=O)NCc1ccc(Cl)cc1 -7.93%, CC1=C(c2ccc(F)cc2)S(=O)(=O)N=C1N1CCC(C(=O)NCCc2ccccc2)CC1 -7.5%, O=C(NCc1ccc(Cl)cc1)c1cc2ccc3cccnc3c2[nH]1 1.15%, COc1ccccc1N1CCN(S(=O)(=O)c2ccc(-c3ccno3)cc2OC)CC1 -33.2%, Cc1ccc(NC(=O)NCCOCCn2c(=O)oc3ccccc32)c(C)c1 -6.25%, COc1cccc(-n2c(SCC(=O)Nc3cccc(C)c3)nc3c([nH]c4ccccc43)c2=O)c1 -21.9%, CC(C)c1ccc(Cc2cn3cc(-c4cc5ccccc5oc4=O)nc3s2)cc1 -22%, COc1ccc(OC)c(C2=NS(=O)(=O)N(C)C(C(=O)Nc3ccc(C(C)=O)cc3)=C2)c1 -25.7%, COc1cc(CN(C(=O)COc2ccc(Cl)cc2)c2ccccn2)cc(OC)c1OC -34.3%, Cc1ccc(C)c(NC(=O)C2CCN(c3ncnc4c3nc3n4CCCCC3)CC2)c1 0.179%

— PubChem BioAssay AID1508624 (National Center for Advancing Translational Sciences (NCATS), 2021)
